In all, about 13,000 compounds were measured (“IFI”: median about 4, highest 2% from about 17 on). The list shows a part of the results.
Experiment: GSK_TCMDC: Inhibition Frequency Index (IFI). The number of non-kinase HTS assays where a compound showed > 50 % inhibition, expressed as a percentage of the number of such assays in which the compound was tested (-0 is zero)
Format: functional
In the case of `COc1cccc(-c2cccc(NC(=O)C3CCN(Cc4ccc(O)cc4)CC3)c2)c1`, the IFI is reported as 2.38%.
In the case of `CCCCN(CCCC)CCC(O)C(=Cc1ccc(Cl)cc1Cl)c1ccc(C(F)(F)F)cc1N` (configuration not stated), the IFI is reported as 0%.
For `COc1cccc(CN2CCN(C(c3ccccc3)c3ccccc3)CC2)c1O`, the IFI was 5.56%.
With `O=C(CC1SC(N2N=C(c3cccs3)CC2c2ccccc2)=NC1=O)Nc1ccc(Cl)cc1` (configuration not stated) the IFI was -0%.
Compound `Cc1ccc(O)c(-c2cc(C(=O)Nc3ccc(S(=O)(=O)N4CCCCC4)cc3)[nH]n2)c1` has an IFI of 9.18%.
Compound `CC(=O)Nc1cc(C(=O)Nc2cccc(-c3cccc(-c4nc5cc(C(F)(F)F)ccc5[nH]4)c3)c2)ccc1C` has an IFI of 5.08%.
For `COc1cc2c(Nc3cccc(NC(=O)c4ccccc4)c3)ncnc2cc1OCCCN1CCOCC1`, the IFI was 1.54%.
`O=C(NCc1cccc(F)c1)Nc1cccc(-c2ccc(-c3nc4cc(F)ccc4[nH]3)cc2)c1` showed an IFI of 1.01%.
`CCCCCn1c(Sc2ccc(C#N)c([N+](=O)[O-])c2)nnc1-c1ccccc1` showed an IFI of 5.67%.
With `N#CN1CC[C@H](CS(=O)(=O)c2cccc(Br)c2)C1` the IFI was 0%.
`Cc1ccccc1OCCCN1CCN(CC(c2ccc(F)cc2)N2CCN(C(C)C)CC2)CC1` (configuration not stated) showed an IFI of 9.23%.
For `CCCCCCSc1nnc(COc2cccc3ccccc23)n1-c1ccc(OC)cc1`, the IFI was 5.43%.
`CC(C)(C)NCCN(Cc1ccc(-c2ccc(C(F)(F)F)cc2)cc1)C(=O)Cn1c(CCc2cccc(F)c2F)nc(=O)c2c1CCC2` gave an IFI of 10.9%.
`Cc1cccc2nc(-c3ccc(-c4cccc(CNCCc5ccncc5)c4)cc3)[nH]c12` gave an IFI of 7%.
Compound `CCCCCc1cc(OC(=O)CCCN(CC)CC)c2c(c1)OC(C)(C)C=C2C1=CCN(Cc2ccc3ccccc3c2)CC1` has an IFI of 15.9%.
`Fc1ccc(C=NN=c2cc[nH]c3ccc(C(F)(F)F)cc23)cc1` gave an IFI of 0%.
For `O=S(=O)(NC1CCN(c2ccnc3cc(Cl)ccc23)C1)c1cccs1` (configuration not stated), the IFI was 1.56%.
In the case of `O=C(Nc1ccnc2ccccc12)NC1CCN(CCc2ccccc2)CC1`, the IFI is reported as 1.44%.
In the case of `CCc1ccc(S(=O)(=O)Nc2cccc(CCN3CCC(N4CCCCC4)CC3)c2)cc1`, the IFI is reported as 4.84%.
`CCOc1ccc2nc(C)cc(N/N=C/c3cccc([N+](=O)[O-])c3)c2c1` showed an IFI of 0.7%.
`COc1ccc(C2N=C(N)N=C(N)N2c2ccc(Cl)cc2)cc1OC` (configuration not stated) showed an IFI of 1.43%.
With `CCOc1ccc2c(c1)N(C(=O)C=Cc1ccccc1)C(C)(C)c1ssc(=S)c1-2` the IFI was 2.19%.
With `CCCNCc1ccc(-c2ccc(CN(CCOC)C(=O)CC3CCCC3=O)cc2)nc1` (configuration not stated) the IFI was 0.69%.
Compound `CCCCCCOc1ccc(C(=O)NCCCC2CCCN(CCCCCNC(=O)C=Cc3ccc(Cl)c(Cl)c3)C2)cc1` (configuration not stated) has an IFI of 6.87%.
For `Cc1c(C(=O)N2CCCC(C(F)(F)F)C2)sc2cccc(F)c12` (configuration not stated), the IFI was 2.94%.
For `O=C(C=Cc1cccs1)Nc1ccc(-c2nc3ccccc3[nH]2)cc1`, the IFI was 2.07%.
Compound `CCC1(CC)CN(c2ccccc2)c2ccc(O)cc2S(=O)(=O)C1CC(C)C` (configuration not stated) has an IFI of 1.45%.
`O=C(NC(c1ccc(Cl)cc1)c1ccc2cccnc2c1O)c1ccccc1` (configuration not stated) showed an IFI of 3.52%.
With `CC1CN(c2cnn(C/C=C/c3ccc(NC(=O)c4ccc5nonc5c4)cc3)c(=O)c2Cl)CC(C)N1` (configuration not stated) the IFI was 7.59%.
`COc1cccc(-c2nc(Nc3ccncc3)c3ncn(C)c3n2)c1` showed an IFI of 3.65%.
With `O=C(NCCCCN1CCC(c2ccc3c(c2OC(=O)c2ccc(NC(=O)c4ccc(Cl)cc4)cc2)CCCC3)CC1)c1ccc(NC(=O)c2ccc(Cl)cc2)cc1` the IFI was 9.48%.
`O=c1cc(NCCCNCc2cccc(Oc3ccccc3)c2)[nH]c2ccccc12` gave an IFI of 5.07%.
With `CCc1cn2c3c(cc(C(=O)N[C@@H](Cc4ccccc4)[C@H](O)CNC4CCOCC4)cc13)N(CC(F)(F)F)S(=O)(=O)CC2` the IFI was 3.68%.
`CC(C)C[C@H](Nc1ccnc(NCC2CCCCC2)n1)C(=O)NCCc1ccccc1` gave an IFI of 8.89%.
`Cc1ccc(NC(=O)Nc2ccc(I)c(OCCN(C)C)c2)cc1Cl` gave an IFI of 5.76%.
`CC(C)c1cc2c(cc1O)C(Cc1ccccc1Cl)N(C)CC2` (configuration not stated) gave an IFI of 0.76%.
`N#Cc1ccc(-c2ccc(C(=O)NCCCCN3CCC(c4ccc5c(c4OCc4ccccn4)CCCC5)CC3)cc2)cc1` gave an IFI of 5.5%.
With `N=C(N)NC(=O)Nc1cc(Cl)c(Br)c(Cl)c1` the IFI was 5.65%.
For `CCc1ccc(-n2c(NC(=O)c3ccccc3)nc3ccc(S(=O)(=O)NC(C)C(C)C)cc32)cc1` (configuration not stated), the IFI was 3.85%.
Work on `Cc1ccc(S(=O)(=O)NC2=NC(=N)N(OCc3ccc(Cl)c(Cl)c3)C(C)(C)N2)cc1` yielded an IFI of -0%.
`CS(=O)(=O)CCOCc1ccc(-c2ccc3ncnc(Nc4ccc(OCc5cccc(F)c5)c(Cl)c4)c3c2)o1` showed an IFI of 3.6%.
Work on `COc1cc2c(c(OC)c1[N+](=O)[O-])C=CC1(O2)N(C)c2ccc([N+](=O)[O-])cc2C1(C)C` (configuration not stated) yielded an IFI of -0%.
In the case of `CCCCCCCCc1c(C)nc(C)c(Br)c1O`, the IFI is reported as 1.44%.
Work on `O=c1c2sc(-c3ccc(Cl)cc3)cc2ncn1Cc1ccc(OCCN2CCCC2)c2ccccc12` yielded an IFI of 6.34%.
`CC1CN(C(=O)c2sc3ccccc3c2Cl)CC(C)O1` (configuration not stated) gave an IFI of -0%.
For `CN(C)CCCN1CCN(C(=O)c2cccc(-c3noc(C(F)(F)F)n3)c2)CC1`, the IFI was 3.67%.
In the case of `COc1ccc(Cc2c(C)nc3nc(N)nc(N)c3c2C)cc1`, the IFI is reported as 2.21%.
`COc1cc(N(C)Cc2cnc3nc(N)nc(N)c3n2)cc(OC)c1OC` gave an IFI of 5.71%.
For `Oc1cccc(-c2nc(-c3ccccc3)c(-c3ccc4oc5ccc(-c6[nH]c(-c7cccc(O)c7)nc6-c6ccccc6)cc5c4c3)[nH]2)c1`, the IFI was 3.03%.
With `CS(=O)(=O)c1ccc(CNCc2cccc(-c3cccc(-c4nc5cc(C(F)(F)F)ccc5[nH]4)c3)c2)cc1` the IFI was 1.92%.
With `COc1ccc(S(=O)(=O)N2CCC(NS(=O)(=O)c3ccc(F)cc3)CC2)cc1` the IFI was 0%.
`Nc1nc(N)c2c(CCc3ccc(Cl)c(Cl)c3)cccc2n1` gave an IFI of 10.8%.
Work on `COc1ccc(Cl)cc1N1CCN(CCCNC(=O)c2ccc(-c3nc4cc(Cl)c(C)cc4[nH]3)s2)CC1` yielded an IFI of 1.46%.
Work on `CCOc1c(CNCCCNc2nc3ccccc3[nH]2)cc(Br)cc1OC` yielded an IFI of 0.71%.
Compound `C[C@H](NC(=O)C1CCCC1)C(=O)Nc1ccc(-c2ccc(-c3nc4cc(C(F)(F)F)ccc4[nH]3)cc2)cc1` has an IFI of 1.8%.
For `O=C(Nc1ccc(CCNCc2ccccc2)cc1)Nc1ccc(OC(F)(F)F)cc1`, the IFI was 0.72%.
`COc1ccc2nccc([C@@H](O)CN3CCC(NCCOc4cccc(C(F)(F)F)c4)CC3)c2c1` gave an IFI of 2.19%.

Reference: ChEMBL document CHEMBL1157539, “Thousands of chemical starting points for antimalarial lead identification” (Nature, 2010)
